Results from PubChem BioAssay (NCI).
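Briefly, cells in 96-well plates were exposed to five compound concentrations for 48 h, and endpoints were estimated by linear interpolation. The concentration for 50% growth inhibition is given as GI50. TGI denotes the concentration required for complete inhibition of growth.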

The compounds below were run on NCI-H322M lung (assay: inhibition of tumour cell growth, NCI panel, 48 h).
`Cc1ccc(S(=O)(=O)c2nc(-c3ccc(F)cc3)oc2S(C)(=O)=O)cc1` was tested, and the GI50 was > 100 µM and the TGI was > 100 µM.
`CC(C)=CCC[C@](C)(O)[C@H]1CC[C@]2(C)[C@@H]1CC[C@@H]1[C@@]3(C)CC[C@H](N)C(C)(C)[C@@H]3CC[C@]12C` was tested, and the GI50 was 1.72 µM and the TGI was 3.11 µM.
`COc1cc2c(O[C@@H]3OC[C@H](OC(C)=O)[C@H](OC(C)=O)[C@H]3O)c3c(c(-c4ccc5c(c4)OCO5)c2cc1OC)C(=O)OC3` was tested, and the GI50 was > 5.79 µM and the TGI was > 10 µM.
Compound `O=C(CSc1nc2ccccc2c(=O)n1-c1ccc(Cl)cc1)N/N=C/c1ccc(Oc2ccc(Cl)cc2)cc1` has a GI50 of 3.02 µM and a TGI of 15 µM.
In the case of `CNC(=O)c1c(NC(=O)c2ccccc2C(F)(F)F)sc2c1CCC(=O)C2`, the GI50 is reported as 3.17 µM and the TGI is reported as > 100 µM.
Compound `Cc1cccc(N2CCN(C3=C(Cl)C(=O)c4ncccc4C3=O)CC2)c1` has a GI50 of 14.4 µM and a TGI of 28.2 µM.
